Assay results: the supplement of paper PMC10126150
Sequences with one replicate were seen in a single cluster, so their values are uncertain.

The sequences below were run on ATP (assay: switch fluorescence ratio, 500 uM ATP over buffer (Cy3 cluster intensity, sum of 5 cycles each) (fold (ratio)); higher = stronger signal-on switching upon ATP binding; sequences stand for … in TCGTCGGCAGCGTCAGATGTGTATAAGAGACAGTTTTTTTTTTTTTTTTTTTTTTTTT…TC). Conditions: aptamer strand: ATP DNA aptamer (quencher-CACCTGGGGGAGTATTGCGGAGGAAGG + anchor), 100 nM annealed; ATP concentration: 500 uM; one replicate.
Method in brief: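 Switching-strand clusters labelled with Cy3 on a modified Illumina MiSeq flow-cell were annealed to 100 nM quencher-labelled ATP aptamer, imaged in selection buffer, and re-imaged after 15 min with 500 uM ATP at 22 °C. This was done over five cycles with NaOH stripping and re-annealing in between. The fluorescence ratio is summed target-cycle over summed buffer-cycle Cy3 intensity per cluster, averaged per switch-domain sequence, excluding clusters outside 100-1000 RFU.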
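Also: ATP exposure 15 min at 22 °C before imaging.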

Row | Sequence | switch fluorescence ratio
1 | GACGTCTTAT | 0.973
2 | GACGTCTTTA | 1.01
3 | GACGTGAAAG | 1.03
4 | GACGTTCGTA | 0.981
5 | GACGTTGTGT | 1
6 | GACGTTTAA | 1.05
7 | GACTAACACA | 1.21
8 | GACTAACAGA | 1.06
9 | GACTAATGC | 1.22
10 | GACTAATTGA | 0.96
11 | GACTACACGA | 1.45
12 | GACTACTCTA | 1.08
13 | GACTAGTCAT | 1.01
14 | GACTATCGGC | 0.994
15 | GACTATCTTA | 0.99
16 | GACTATTCGG | 1.01
17 | GACTCCACGG | 1.14
18 | GACTCCGCTT | 2.01
19 | GACTCCTGGT | 1.06
20 | GACTCGCTGA | 1.16
21 | GACTGACGGT | 1.27
22 | GACTGAGATA | 1.04
23 | GACTGATGAC | 1.08
24 | GACTGCAGAG | 0.969
25 | GACTGCCGAC | 1.12
26 | GACTGCCGAG | 1.07

Row | Sequence | switch fluorescence ratio
27 | GACTGCTGGG | 1
28 | GACTGGATTT | 1.08
29 | GACTGGCCTG | 0.989
30 | GACTGGGTAA | 1
31 | GACTGGGTGT | 1.19
32 | GACTGTAGTG | 0.993
33 | GACTTGGGCA | 1.02
34 | GACTTGT | 0.98
35 | GACTTGTGAG | 0.991
36 | GACTTTCCGA | 1.75
37 | GACTTTGCGT | 0.997
38 | GAGAAAAAAC | 0.974
39 | GAGAAATTAG | 0.997
40 | GAGAACCCAT | 1.01
41 | GAGAAGAG | 1.04
42 | GAGAAGCACC | 1.18
43 | GAGAATACTA | 1.01
44 | GAGACAAAAA | 1
45 | GAGACAATCC | 1.17
46 | GAGACACTAT | 1.04
47 | GAGACTGTTT | 0.984
48 | GAGACTTGGA | 1.03
49 | GAGAGAAAAA | 0.988
50 | GAGAGCAATT | 1.94
51 | GAGAGGGCTG | 0.939
52 | GAGAGGTAAA | 0.994

Row | Sequence | switch fluorescence ratio
53 | GAGAGTAGTA | 0.974
54 | GAGATCATCC | 0.972
55 | GAGATGTGAC | 0.978
56 | GAGATTGTCA | 0.977
57 | GAGCAAACAT | 1.12
58 | GAGCAATCGT | 1.65
59 | GAGCACCGTG | 0.978
60 | GAGCAGTCTT | 0.989
61 | GAGCATTGTG | 0.965
62 | GAGCCAATCG | 1.06
63 | GAGCCACACT | 1.06
64 | GAGCCAGGA | 0.996
65 | GAGCCATATT | 1.01
66 | GAGCCCCCAA | 1.13
67 | GAGCCCCTAC | 1.06
68 | GAGCCCGGAA | 1.09
69 | GAGCCGTGAG | 0.967
70 | GAGCCGTTCG | 0.98
71 | GAGCCTCACG | 1.05
72 | GAGCCTCCTC | 1.11
73 | GAGCCTGTAT | 0.998
74 | GAGCGACGTG | 0.926
75 | GAGCGCAAGT | 1.04
76 | GAGCGCACTA | 1.19
77 | GAGCGCATTC | 2.14
78 | GAGCGCCAGT | 0.98

Row | Sequence | switch fluorescence ratio
79 | GAGCGGAGCA | 0.99
80 | GAGCGGATTC | 1.07
81 | GAGCGGGTGT | 1.03
82 | GAGCTAGCAG | 1.01
83 | GAGCTCATGG | 0.99
84 | GAGCTGCGTC | 1.02
85 | GAGCTGGCCA | 1.09
86 | GAGCTGGTCT | 1.07
87 | GAGCTTACG | 1.03
88 | GAGCTTATCA | 1.03
89 | GAGCTTCGTG | 0.997
90 | GAGCTTGTTC | 0.948
91 | GAGGAAGAGT | 0.973
92 | GAGGACACGG | 0.994
93 | GAGGACCGGG | 0.992
94 | GAGGAGAATG | 0.981
95 | GAGGAGAGCT | 1.02
96 | GAGGAGGAAA | 1.01
97 | GAGGAGGAGG | 1.02
98 | GAGGAGGGG | 1.03
99 | GAGGAGTCCT | 1
100 | GAGGATCGAT | 0.986
101 | GAGGATGTTT | 0.993
102 | GAGGATTGAT | 0.979
103 | GAGGCAACAT | 1.51
104 | GAGGCAGTCA | 0.997

Row | Sequence | switch fluorescence ratio
105 | GAGGCCAAAT | 1.04
106 | GAGGCCAAG | 0.99
107 | GAGGCCCATC | 1.02
108 | GAGGCCTACT | 1.94
109 | GAGGCGAGTT | 1.01
110 | GAGGCTTACC | 0.953
111 | GAGGCTTTAA | 0.998
112 | GAGGGCAACG | 0.967
113 | GAGGGCTCCC | 0.983
114 | GAGGGGTATA | 1.02
115 | GAGGGTGCAC | 1.08
116 | GAGGTATTTC | 0.966
117 | GAGGTCAAAC | 1.12
118 | GAGGTCAGTA | 1.03
119 | GAGGTCCCCG | 0.963
120 | GAGGTCTAGC | 1
121 | GAGTAAGGAG | 0.98
122 | GAGTACAGGG | 1
123 | GAGTAGGGGC | 1.06
124 | GAGTATCCAA | 1.01
125 | GAGTATCGGA | 0.949
126 | GAGTATTGCC | 1.07
127 | GAGTCAGCCT | 1.02
128 | GAGTCGTGTA | 1.06
129 | GAGTCTGGTC | 1.01
130 | GAGTGAAAAT | 1.01

Row | Sequence | switch fluorescence ratio
131 | GAGTGACCCT | 1.04
132 | GAGTGATATG | 1.01
133 | GAGTGCAAGT | 0.998
134 | GAGTGCGTTA | 1.02
135 | GAGTGGGG | 1.02
136 | GAGTTGATTC | 1.02
137 | GAGTTGGACT | 0.993
138 | GAGTTGTTTG | 0.996
139 | GAGTTTAAGT | 0.972
140 | GAGTTTAGG | 0.943
141 | GAGTTTGAGA | 0.961
142 | GAGTTTTGTT | 1.02
143 | GATAAAGAGA | 0.976
144 | GATAAATAAC | 1.01
145 | GATAACATAT | 0.984
146 | GATAATAGT | 1.01
147 | GATAATCGGG | 0.978
148 | GATAATGATC | 1.01
149 | GATAATTTGC | 1.03
150 | GATACAGAGC | 1.01
151 | GATACAGTGG | 1
152 | GATACCGAGG | 1.02
153 | GATACGAGGT | 1.01
154 | GATACGCTAT | 1.69
155 | GATACGTCAG | 1.02
156 | GATACTTGTT | 0.96

Row | Sequence | switch fluorescence ratio
157 | GATAGAGTA | 0.99
158 | GATAGAGTAT | 1
159 | GATAGCACCA | 1.02
160 | GATAGCAGCC | 1.11
161 | GATAGCGCTC | 0.947
162 | GATAGGAGAG | 1.03
163 | GATAGGCAGT | 1.15
164 | GATAGGCGC | 1.03
165 | GATAGTTAAC | 0.992
166 | GATAGTTGGC | 1.12
167 | GATATAACTT | 1.01
168 | GATATAGT | 1.02
169 | GATATATCAA | 0.998
170 | GATATCATAG | 0.993
171 | GATATGAAGC | 1.01
172 | GATATGACCG | 1.08
173 | GATATGACT | 0.997
174 | GATATGAGGC | 1.02
175 | GATATGAGTA | 1.02
176 | GATATGGGAT | 1
177 | GATATGTACT | 1.06
178 | GATATTGTCT | 0.959
179 | GATATTTTCT | 1.03
180 | GATCAACAAA | 0.973
181 | GATCAATAAA | 0.981
182 | GATCACTACT | 1.07

Row | Sequence | switch fluorescence ratio
183 | GATCACTTCG | 1
184 | GATCAGAGGC | 0.957
185 | GATCAGGTAA | 0.955
186 | GATCATGGAA | 0.975
187 | GATCCAGGA | 1.04
188 | GATCCCAGAA | 0.996
189 | GATCCCGGTG | 1.21
190 | GATCCTAT | 0.955
191 | GATCGCTACG | 1.09
192 | GATCGTCATG | 1.01
193 | GATCGTCTAC | 1.02
194 | GATCGTGCCT | 1.02
195 | GATCGTTAAA | 1.01
196 | GATCGTTATC | 1.01
197 | GATCTATTCA | 1.02
198 | GATCTCAAAG | 0.961
199 | GATCTCTTCT | 1
200 | GATCTTGGTT | 1.04
201 | GATCTTGTTG | 0.966
